Article PMC9911399, “Two distinct binding modes provide the RNA-binding protein RbFox with extraordinary sequence specificity”
Positions count from the first letter of the chain named. The list shows a part of the results.

T1: RBFOX1 RRM RbFoxmut (Fox-RRM*) (Homo sapiens, UniProt Q9NWB1 109-208, R118D;E147R;N151S;E152T)
T1 sequence: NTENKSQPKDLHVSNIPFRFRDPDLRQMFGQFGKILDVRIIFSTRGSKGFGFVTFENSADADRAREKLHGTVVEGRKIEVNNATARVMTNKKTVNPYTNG

B1: ACGUUCU (DNA:RNA)
RNA: GGGAGACCGGAAUUCAGAUUGUCCACGUUCUUUAAAUCCCGUCGUAGCCACCA
DNA 1: CAATCTGAATTCCGGTCTCCC
DNA 2: TGGTGGCTACGACGGGATT
B2: GUAUCCA (DNA:RNA)
RNA: B1 RNA with A25G, C26U, G27A, U29C, U31A
DNA 1: CAATCTGAATTCCGGTCTCCC
DNA 2: TGGTGGCTACGACGGGATT
B3: UCCAGGG (DNA:RNA)
RNA: B1 RNA with A25U, G27C, U28A, U29G, C30G, U31G
DNA 1: CAATCTGAATTCCGGTCTCCC
DNA 2: TGGTGGCTACGACGGGATT
B4: UAGUUAU (DNA:RNA)
RNA: B1 RNA with A25U, C26A, C30A
DNA 1: CAATCTGAATTCCGGTCTCCC
DNA 2: TGGTGGCTACGACGGGATT
B5: UGAUUUU (DNA:RNA)
RNA: B1 RNA with A25U, C26G, G27A, C30U
DNA 1: CAATCTGAATTCCGGTCTCCC
DNA 2: TGGTGGCTACGACGGGATT
B6: AUCAUUG (DNA:RNA)
RNA: B1 RNA with C26U, G27C, U28A, C30U, U31G
DNA 1: CAATCTGAATTCCGGTCTCCC
DNA 2: TGGTGGCTACGACGGGATT
B7: GAAUUUA (DNA:RNA)
RNA: B1 RNA with A25G, C26A, G27A, C30U, U31A
DNA 1: CAATCTGAATTCCGGTCTCCC
DNA 2: TGGTGGCTACGACGGGATT
B8: CAGCCAC (DNA:RNA)
RNA: B1 RNA with A25C, C26A, U28C, U29C, C30A, U31C
DNA 1: CAATCTGAATTCCGGTCTCCC
DNA 2: TGGTGGCTACGACGGGATT
B9: AGCCUAU (DNA:RNA)
RNA: B1 RNA with C26G, G27C, U28C, C30A
DNA 1: CAATCTGAATTCCGGTCTCCC
DNA 2: TGGTGGCTACGACGGGATT
B10: UACACCC (DNA:RNA)
RNA: B1 RNA with A25U, C26A, G27C, U28A, U29C, U31C
DNA 1: CAATCTGAATTCCGGTCTCCC
DNA 2: TGGTGGCTACGACGGGATT
B11: GUCUUUC (DNA:RNA)
RNA: B1 RNA with A25G, C26U, G27C, C30U, U31C
DNA 1: CAATCTGAATTCCGGTCTCCC
DNA 2: TGGTGGCTACGACGGGATT
B12: AGGGUAU (DNA:RNA)
RNA: B1 RNA with C26G, U28G, C30A
DNA 1: CAATCTGAATTCCGGTCTCCC
DNA 2: TGGTGGCTACGACGGGATT
B13: GGGACAA (DNA:RNA)
RNA: B1 RNA with A25G, C26G, U28A, U29C, C30A, U31A
DNA 1: CAATCTGAATTCCGGTCTCCC
DNA 2: TGGTGGCTACGACGGGATT
B14: GUACUCU (DNA:RNA)
RNA: B1 RNA with A25G, C26U, G27A, U28C
DNA 1: CAATCTGAATTCCGGTCTCCC
DNA 2: TGGTGGCTACGACGGGATT
B15: CAUUCGG (DNA:RNA)
RNA: B1 RNA with A25C, C26A, G27U, U29C, C30G, U31G
DNA 1: CAATCTGAATTCCGGTCTCCC
DNA 2: TGGTGGCTACGACGGGATT
B16: UAGAUUC (DNA:RNA)
RNA: B1 RNA with A25U, C26A, U28A, C30U, U31C
DNA 1: CAATCTGAATTCCGGTCTCCC
DNA 2: TGGTGGCTACGACGGGATT
B17: UUCGUGC (DNA:RNA)
RNA: B1 RNA with A25U, C26U, G27C, U28G, C30G, U31C
DNA 1: CAATCTGAATTCCGGTCTCCC
DNA 2: TGGTGGCTACGACGGGATT
B18: CACGAGU (DNA:RNA)
RNA: B1 RNA with A25C, C26A, G27C, U28G, U29A, C30G
DNA 1: CAATCTGAATTCCGGTCTCCC
DNA 2: TGGTGGCTACGACGGGATT
B19: GGAGUAC (DNA:RNA)
RNA: B1 RNA with A25G, C26G, G27A, U28G, C30A, U31C
DNA 1: CAATCTGAATTCCGGTCTCCC
DNA 2: TGGTGGCTACGACGGGATT
B20: CUUGAAA (DNA:RNA)
RNA: GGGAGACCGGAAUUCAGAUUGUCCCUUGAAAUUAAAUCCCGUCGUAGCCACCA
DNA 1: CAATCTGAATTCCGGTCTCCC
DNA 2: TGGTGGCTACGACGGGATT

Molecular target: T1, RBFOX1 RRM RbFoxmut (Fox-RRM*)
Assay: EMSA; HiTS-Eq, 1 nM pool, 10 min; buffer printed only for the single-RNA assays: 10 mM Tris pH 7.5, 150 mM NaCl, 3.4 mM EDTA, 0.001% NP-40, 30 C
Conditions: tags: His6 N-terminal (pET28a); label: 5' 32P
In short: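 A pool of RNA with 7 randomized nucleotides, 5′-radiolabelled and with DNA-annealed flanks, was equilibrated at 1 nM for 10 min in 50 µL with purified RbFox RRM, wild type or mutant, across increasing protein concentrations. Free RNA was separated by 8% native PAGE, excised, reverse-transcribed, barcoded by PCR and sequenced. Relative association constants were obtained from read-count changes of each RNA species versus the control reaction and normalised to the cognate motif.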

Binder | binding signal
B1 | 0.0626 KA relative to UGCAUGU
B2 | 0.154 KA relative to UGCAUGU
B3 | 0.09 KA relative to UGCAUGU
B4 | 0.123 KA relative to UGCAUGU
B5 | 0.079 KA relative to UGCAUGU
B6 | 0.136 KA relative to UGCAUGU
B7 | 0.136 KA relative to UGCAUGU
B8 | 0.0877 KA relative to UGCAUGU
B9 | 0.0856 KA relative to UGCAUGU
B10 | 0.0668 KA relative to UGCAUGU
B11 | 0.059 KA relative to UGCAUGU
B12 | 0.156 KA relative to UGCAUGU
B13 | 0.044 KA relative to UGCAUGU
B14 | 0.0878 KA relative to UGCAUGU
B15 | 0.0659 KA relative to UGCAUGU
B16 | 0.0894 KA relative to UGCAUGU
B17 | 0.134 KA relative to UGCAUGU
B18 | 0.15 KA relative to UGCAUGU
B19 | 0.0876 KA relative to UGCAUGU
B20 | 0.0838 KA relative to UGCAUGU
